{"sequences": {"note": "The chains behind the UniProt entries cited, without tags or fusion partners.", "UniProt Q7TMB8": "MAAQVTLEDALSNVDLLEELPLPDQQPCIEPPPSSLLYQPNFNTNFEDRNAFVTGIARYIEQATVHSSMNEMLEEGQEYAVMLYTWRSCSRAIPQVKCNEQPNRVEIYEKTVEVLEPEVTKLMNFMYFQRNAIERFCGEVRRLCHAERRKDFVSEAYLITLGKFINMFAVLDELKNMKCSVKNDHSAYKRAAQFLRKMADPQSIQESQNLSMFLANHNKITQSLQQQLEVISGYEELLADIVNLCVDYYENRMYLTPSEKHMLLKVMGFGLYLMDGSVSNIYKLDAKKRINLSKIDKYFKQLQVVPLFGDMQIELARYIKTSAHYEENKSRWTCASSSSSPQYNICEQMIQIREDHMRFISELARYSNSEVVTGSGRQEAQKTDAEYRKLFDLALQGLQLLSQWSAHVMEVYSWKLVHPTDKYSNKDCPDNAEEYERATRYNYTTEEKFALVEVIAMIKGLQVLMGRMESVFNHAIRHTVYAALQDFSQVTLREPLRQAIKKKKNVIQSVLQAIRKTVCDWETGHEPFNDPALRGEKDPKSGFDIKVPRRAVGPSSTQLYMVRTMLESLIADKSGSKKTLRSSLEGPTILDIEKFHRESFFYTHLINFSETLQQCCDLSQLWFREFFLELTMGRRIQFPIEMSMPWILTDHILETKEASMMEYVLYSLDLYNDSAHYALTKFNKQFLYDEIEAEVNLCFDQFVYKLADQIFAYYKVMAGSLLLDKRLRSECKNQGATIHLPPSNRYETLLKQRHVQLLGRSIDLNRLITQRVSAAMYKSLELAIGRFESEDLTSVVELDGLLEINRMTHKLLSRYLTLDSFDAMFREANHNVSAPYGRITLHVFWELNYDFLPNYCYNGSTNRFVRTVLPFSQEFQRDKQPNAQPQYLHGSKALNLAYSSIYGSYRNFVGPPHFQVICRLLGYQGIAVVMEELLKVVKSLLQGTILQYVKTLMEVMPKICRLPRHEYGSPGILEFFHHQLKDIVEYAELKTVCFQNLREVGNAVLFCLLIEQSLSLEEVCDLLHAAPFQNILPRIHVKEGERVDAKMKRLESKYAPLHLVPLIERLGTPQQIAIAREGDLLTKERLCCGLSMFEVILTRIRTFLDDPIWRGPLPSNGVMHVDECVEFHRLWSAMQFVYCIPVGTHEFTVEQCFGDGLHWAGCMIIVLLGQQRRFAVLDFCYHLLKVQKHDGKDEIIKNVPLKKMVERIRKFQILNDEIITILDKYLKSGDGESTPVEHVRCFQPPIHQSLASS"}, "source": "paper PMC11247502", "assay_in_all_cases": "co-IP; Lysates of Neuro2a cells expressing GFP, NTD-GFP, rICL-GFP or ICL-TET-GFP; immunoprecipitation by GFP, western blotting for endogenous proteins", "key": {"[1]": {"biological_target": "GFP-tagged N-terminal domain of ATP1A3 (NTD-GFP) (human) (UniProt P13637)"}, "[2]": {"biological_target": "GFP-tagged refined ICL II domain of ATP1A3 (rICL-GFP) (human) (UniProt P13637)"}, "[3]": {"biological_target": "EGFP-tagged human ATP1A3 fragment consisting of an intracellular loop (ICL), two transmembrane (T) domains and an extracellular loop (E) (ICL-TET-GFP) (human) (UniProt P13637)"}}, "note": "These are yes or no findings as the source states them, for the method shown. Binding seen in cells or lysates may run through a third protein. Some results given as binding are weak or reduced against the parent protein; the word gives no strength.", "data": [{"substance": "Eif4g (encoded by Eif4g1) (from UniProt Q6NZJ6 1-1600)", "values": [{"measurement": "binding", "setting": "[1]", "result": "no binding"}, {"measurement": "binding", "setting": "[2]", "result": "binds"}, {"measurement": "binding", "setting": "[3]", "result": "binds"}]}, {"substance": "Cyfip1 (from UniProt Q7TMB8 1-1253)", "values": [{"measurement": "binding", "setting": "[1]", "result": "no binding"}, {"measurement": "binding", "setting": "[2]", "result": "binds"}, {"measurement": "binding", "setting": "[3]", "result": "binds"}]}, {"substance": "Pabpc1 (from UniProt P29341 1-636)", "values": [{"measurement": "binding", "setting": "[1]", "result": "no binding"}, {"measurement": "binding", "setting": "[2]", "result": "binds"}, {"measurement": "binding", "setting": "[3]", "result": "binds"}]}]}
